Measurements reported in US7037678.

Assays:
[1] = molecular target: endogenous Claspin of Xenopus egg extract
Chain of endogenous Claspin of Xenopus egg extract (chain, as listed by the source): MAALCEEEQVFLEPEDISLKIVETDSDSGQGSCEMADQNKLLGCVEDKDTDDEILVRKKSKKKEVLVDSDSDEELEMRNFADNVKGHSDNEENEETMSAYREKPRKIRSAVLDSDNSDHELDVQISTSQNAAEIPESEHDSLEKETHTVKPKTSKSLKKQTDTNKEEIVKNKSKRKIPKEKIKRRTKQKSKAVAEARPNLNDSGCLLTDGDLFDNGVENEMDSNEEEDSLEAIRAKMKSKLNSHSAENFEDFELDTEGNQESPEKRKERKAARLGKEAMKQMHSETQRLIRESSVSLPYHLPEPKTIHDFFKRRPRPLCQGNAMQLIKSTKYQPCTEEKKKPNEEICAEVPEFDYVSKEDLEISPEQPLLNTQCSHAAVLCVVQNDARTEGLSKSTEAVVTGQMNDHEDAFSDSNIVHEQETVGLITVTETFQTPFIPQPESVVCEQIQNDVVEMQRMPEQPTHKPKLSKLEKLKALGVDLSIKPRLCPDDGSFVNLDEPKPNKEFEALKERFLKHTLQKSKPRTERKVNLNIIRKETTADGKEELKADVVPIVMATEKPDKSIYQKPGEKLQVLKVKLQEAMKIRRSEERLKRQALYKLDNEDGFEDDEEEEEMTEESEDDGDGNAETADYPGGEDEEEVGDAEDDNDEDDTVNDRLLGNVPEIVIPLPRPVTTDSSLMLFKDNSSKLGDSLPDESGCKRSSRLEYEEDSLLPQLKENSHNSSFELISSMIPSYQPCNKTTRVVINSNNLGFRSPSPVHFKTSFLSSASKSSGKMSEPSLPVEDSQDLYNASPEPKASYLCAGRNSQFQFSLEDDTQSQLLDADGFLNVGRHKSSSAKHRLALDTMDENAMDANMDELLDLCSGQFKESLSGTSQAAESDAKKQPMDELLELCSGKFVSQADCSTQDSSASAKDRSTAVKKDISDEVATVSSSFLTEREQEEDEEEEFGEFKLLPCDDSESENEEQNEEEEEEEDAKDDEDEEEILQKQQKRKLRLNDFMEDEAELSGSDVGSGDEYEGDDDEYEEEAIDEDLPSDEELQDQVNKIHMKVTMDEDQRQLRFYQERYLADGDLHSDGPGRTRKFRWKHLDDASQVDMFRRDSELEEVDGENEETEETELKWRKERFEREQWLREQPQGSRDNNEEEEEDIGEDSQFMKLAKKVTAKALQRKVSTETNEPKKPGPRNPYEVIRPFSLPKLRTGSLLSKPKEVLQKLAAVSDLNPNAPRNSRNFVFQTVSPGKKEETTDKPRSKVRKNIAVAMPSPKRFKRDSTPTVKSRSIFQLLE

B1: Xchk1-WT-GST-His6 (protein)
chain: MAVPFVEDWDLVQTLGEGAYGEVQLAVNRKTEEAVAVKIVDMTRAADCPENIKKEICINRMLSHTNIVRFYGHRREGNIQYLFLEYCRGGELFDRIEPDVGMPEQDAQKFFQQLIAGVEYLHSIGITHRDIKPENLLLDERDQLKISDFGLATVFRHNGKERLLNKMCGTLPYVAPELIKSRAFHADPVDVWSCGIVLTAMLAGELPWDQPNEVCQEYCDWKEKNHYLTPWKKISATPLALLCKMLTENPQSRITIPDIKKDRWFTEIIKKGLKRSRVISGGSSDSSVLCKQIRSDIDISHFSHSEEKTALSSTQPEPRTALATWDSNSSYIDNLVQGKGISFSQPACPDNMLLNSQLIGTPGSSQNVWQRLVKRMTRFFTKVNAESSYSNLMDTCEKMGYVLKKSCANEVTLSTTDRRNNKLIFKVNLVEMEDRILLDFRLSKGDGLEFKRHFLKIKKKMDAVVAVQKVLPDTM[omitted - about 200 residues]
His6-Claspin
Chain of His6-Claspin (chain, as listed by the source): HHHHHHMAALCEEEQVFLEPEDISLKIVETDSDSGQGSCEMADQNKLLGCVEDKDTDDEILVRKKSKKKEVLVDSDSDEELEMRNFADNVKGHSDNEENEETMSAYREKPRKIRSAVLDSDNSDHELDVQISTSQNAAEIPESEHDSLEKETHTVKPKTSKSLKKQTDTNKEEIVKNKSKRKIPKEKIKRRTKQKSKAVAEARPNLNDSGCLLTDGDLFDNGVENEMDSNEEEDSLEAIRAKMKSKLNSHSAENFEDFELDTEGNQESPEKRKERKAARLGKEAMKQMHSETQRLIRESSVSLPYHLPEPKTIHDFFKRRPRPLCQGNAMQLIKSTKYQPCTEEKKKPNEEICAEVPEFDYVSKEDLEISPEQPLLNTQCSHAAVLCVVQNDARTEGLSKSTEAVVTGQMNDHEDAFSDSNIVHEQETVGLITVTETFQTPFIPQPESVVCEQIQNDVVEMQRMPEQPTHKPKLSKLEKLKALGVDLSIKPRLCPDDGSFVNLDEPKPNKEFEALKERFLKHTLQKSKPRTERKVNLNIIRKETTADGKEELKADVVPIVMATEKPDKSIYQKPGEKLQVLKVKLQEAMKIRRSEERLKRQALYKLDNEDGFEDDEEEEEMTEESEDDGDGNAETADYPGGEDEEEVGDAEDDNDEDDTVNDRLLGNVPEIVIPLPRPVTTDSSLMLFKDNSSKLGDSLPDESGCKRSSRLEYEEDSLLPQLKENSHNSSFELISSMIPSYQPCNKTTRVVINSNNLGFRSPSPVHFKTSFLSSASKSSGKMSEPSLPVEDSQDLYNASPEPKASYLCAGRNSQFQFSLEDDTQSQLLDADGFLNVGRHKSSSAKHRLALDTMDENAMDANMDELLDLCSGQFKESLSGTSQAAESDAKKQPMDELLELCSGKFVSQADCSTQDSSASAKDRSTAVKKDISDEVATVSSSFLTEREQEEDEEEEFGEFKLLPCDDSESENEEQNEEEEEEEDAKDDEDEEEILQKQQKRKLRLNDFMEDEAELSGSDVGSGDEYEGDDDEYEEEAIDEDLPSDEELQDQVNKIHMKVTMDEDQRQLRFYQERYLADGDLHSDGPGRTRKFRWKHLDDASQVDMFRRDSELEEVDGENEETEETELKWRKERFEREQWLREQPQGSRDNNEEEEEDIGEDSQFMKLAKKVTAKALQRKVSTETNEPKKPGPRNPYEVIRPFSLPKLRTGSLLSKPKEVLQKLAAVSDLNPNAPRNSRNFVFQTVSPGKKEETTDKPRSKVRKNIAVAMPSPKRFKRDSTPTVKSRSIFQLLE
  checkpoint-dependent phosphorylation of recombinant Xchk1 re-isolated from egg extract: the addition of recombinant His6-Claspin to Claspin-depleted extracts completely restored the phosphorylation of Xchk1
[1]
  checkpoint-dependent phosphorylation of recombinant Xchk1 re-isolated from egg extract: The checkpoint-dependent phosphorylation of Xchk1 in Claspin-depleted extracts was almost completely abolished in comparison with mock-depleted extracts.
  kinase activity of recombinant Xchk1 isolated from egg extract (substrate GST-Cdc25(254-316)-WT): recombinant Xchk1 was activated about 4-fold in extracts containing poly(dA)70-poly(dT)70. This activation was strongly reduced in Claspin-depleted extracts
